Assay results published in PubChem BioAssay (NCI).
Values joined by “and” are separate entries in the source; they are usually repeats but may differ in a detail not shown here. Identical values can stand only once.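 48-hour exposure; five concentrations; linearly interpolated endpoints. The concentration for 50% growth inhibition is given as GI50. TGI is the concentration that stops growth completely.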 Numbered stars: 1 amine (or outer) side, 2 acyl side, 3 side chain; on linkers, the order of the positions; unused ones are H or OH. Square brackets hold non-standard residues; d marks the D form. Peptide text beside a SMILES is read from it. * marks the point of attachment. Phe(4-NO2) = N[CH](Cc1ccc([N+](=O)[O-])cc1)C(=O)O; X4 = C[C@H](N[*:1])C(=O)C(C)(C)C(=O)[*:2]; Hmpa(2S,3S) = CC[C@H](C)[C@H](O)C(=O)O; NMeY = CN[C@@H](Cc1ccc(O)cc1)C(=O)O; NMeL = CN[C@@H](CC(C)C)C(=O)O; NMeV = CN[C@H](C(=O)O)C(C)C; Boc = CC(C)(C)OC(=O)*; βAla = NCCC(=O)O

These compounds were tested on NCI-H322M lung (assay: DTP human tumour cell line panel, 48 h).

SMILES | TGI | GI50
COc1cccc(/C=N/C(/N=C/c2cccc(OC)c2O)c2cccc(OC)c2O)c1O | 6.11 µM | –
COc1cc2c(cc1OC)C13CCN4CC5CCOC6CC(=O)N2C1C6C5CC43 (stereo not drawn) | > 100 µM | –
CN(C)CCCNC(=O)c1cc(NC(=O)c2cc(NC(=O)CCNS(=O)(=O)c3ccc4c(c3)C(=O)c3ccccc3C4=O)cn2C)cn1C | > 100 µM | 35.7 µM
NC(=S)N/N=C\c1nccc2ccccc12 | > 49 µM | –
Cc1ccc(S(=O)(=O)N2CCCSCC2)cc1 | > 100 µM | –
Cn1cc2ccccc2c1-c1nc(F)nc(OCC(=O)[C@H]2CCC3[C@@H]4CCC5=CC(=O)CC[C@]5(C)C4[C@@H](O)C[C@@]32C)n1 (stereo partly drawn) | 37.4 µM | –
N/C(=N\N=C\c1ccc2c(c1)OCCO2)NO | > 64.8 µM | –
O=C(O)CN1C(=O)C(Cc2ccc(O)cc2)N=C(c2cccc(O)c2)c2ccccc21 (stereo not drawn) | > 100 µM | –
CCOC(=O)c1[nH]c(COC(C)=O)c2c1CCCCCCCCCC2 | > 100 µM | –
Cc1cccc(C)c1NC(=O)C(=O)Nn1c(NN)nc2ccccc2c1=O | > 100 µM | –
O=c1c(O)c(-c2cc(O)c(O)c(O)c2)oc2cc(O)cc(O)c12 | 74.1 µM | –
C=CC(Cl)(CBr)CCC(Br)C(C)(C)Cl (stereo not drawn) | 44.8 µM | –
C=C(C)[C@@H]1CCC2=C[C@H](OC2=O)[C@@]2(C)C[C@@H]2C2=CC(C)=C(O2)[C@H]1O | > 75 µM | –
O=C(Nc1ccc([N+](=O)[O-])cc1Cl)c1cccc([N+](=O)[O-])c1O | 8.87 µM | –
COc1ccccc1C(=O)c1c(NCc2ccccc2)c(=O)c1=O | > 100 µM | –
Cc1nc2c(=O)n(C)ncc2[nH]1 | > 100 µM | –
CC[C@H](C)[C@@H]1OC(=O)CCNC(=O)[C@@H](C)NC(=O)C(C)(C)C(=O)[C@H](C)NC(=O)[C@H](Cc2ccc(OC)cc2)N(C)C(=O)[C@H](C(C)C)N(C)C(=O)CNC(=O)[C@H](CC(C)C)N(C)C(=O)CNC1=O (cyclo(G[NMeL]G[NMeV][NMeY](Me)[X4][dA][βAla][Hmpa(2S,3S)])) | > 50 µM | –
CN(C)c1ccc(/C=c2\sc3nc4ccccc4n3c2=O)cc1 | > 100 µM | –
CO/N=C(\C)CCC#Cc1ccccc1C(=O)OC | > 10 µM | –
N[C@H]1CCCC[C@@H]1N1C(=O)c2ccccc2C1(O)c1ccc(Cl)cc1 (stereo partly drawn) | 27 µM | –
COc1cc(-c2nc(SCCC(C)C)nc(Nc3ccc(S(N)(=O)=O)cc3)c2C#N)cc(OC)c1OC | > 100 µM | 4.02 µM
CC(=O)Nc1c(C)cc2c(nc3n2CCC3O)c1[N+](=O)[O-] (stereo not drawn) | > 100 µM | –
CN1C(=O)C2C(C1=O)C1(O)c3ccccc3C2(N)c2ccccc21 (stereo not drawn) | > 100 µM | –

SMILES | TGI | GI50
CCCCCCCCCCCCCCCCCCN(C)CC(COP(=O)([O-])OCC[N+](C)(C)C)OC (stereo not drawn) | 47.4 µM | –
COc1cc(CNNC(N)=S)cc(OC)c1OC | > 100 µM | –
CCOC(=O)NC(Nc1ccc(C(=O)OCC)cc1)(C(F)(F)F)C(F)(F)F | > 100 µM | –
C=C1CCC([N+](=O)[O-])[C@](C)(N=O)CC[C@@H]2C1CC2(C)C (stereo partly drawn) | > 100 µM | –
NC(N)=Nc1ccc(CC(N)C(=O)O)cc1 (stereo not drawn) | > 12.5 µM | –
CC(C)NC(=O)CN1CCN(c2c(O)c3c(c(O)c2Cl)C(=O)C=CC3=O)CC1 | 12.1 µM | –
C=C(c1ccccc1)[C@@]1(O)CC[C@@H]1N(CC#N)Cc1ccccc1 | > 100 µM | –
CN(C)CCNC(=O)c1ccc(NC(=O)c2nc([N+](=O)[O-])cn2C)cc1 | > 100 µM | –
CCOC(=O)c1c2c(n3ccccc13)C(=O)c1ncccc1C2=O | 5.55 µM | 0.0465 µM
C=CCC1C(=O)CC2(C)CC(=O)C(CC=C)C12C (stereo not drawn) | > 100 µM | –
C=C1C2C[C@@H]3O[C@H]4C[C@H]5O[C@@]6(C[C@@H]7O[C@]8(C[C@H](C)[C@@H]9O[C@@H]%10CC(CO)O[C@@H]%10C[C@@H]9O8)C[C@H](C)[C@@H]7O6)C[C@H]5O[C@H]4[C@H](C)[C@H]3OC(=O)C[C@H]3CC[C@@H]4OC5[C@H]6O[C@]7(CC[C@H]8CC(=C)[C@H](CC[C@@H](C[C@H]1C)O2)O8)CC6O[C@@H]5[C@@H](O7)[C@H]4O3 (stereo partly drawn) | < 0.0001 µM | –
CN(C)c1nc(Cl)c2c(-c3ccccc3)c(-c3ccccc3)oc2n1 | > 100 µM | –
O=C1CCc2c(sc3[nH]c(=S)n(Cc4ccc(Cl)cc4)c(=O)c23)C1 | > 100 µM | 2.64 µM
Cc1ccc(S(=O)(=O)NNCNC(=O)c2ccccc2)cc1 | > 100 µM | –
O=C1C(c2c(O)[nH]c3ccc(Br)cc23)=Nc2ccccc21 | 31.2 µM | –
CNC(=O)CCC(NC(=O)OC(C)(C)C)C(=O)NC(Cc1ccc([N+](=O)[O-])cc1)C(=O)NCC(=O)NC (stereo not drawn) (Boc-Glu(NHMe)-[Phe(4-NO2)]-Gly-NHMe; configuration not given here) | > 100 µM | –
O=c1c(-c2ccccc2)coc2cc(OC/C(=N/O)c3ccccc3)ccc12 | 39.9 µM | 16.5 µM
COc1ccc2c(c1)C(=O)c1c-2n(CCCI)c(=O)c2cc([N+](=O)[O-])ccc12 | 50 µM and > 100 µM | 1.24 µM and 2.76 µM
CCOC(=O)c1ccc(N=c2sc3ccccc3nc2Nc2ccc(C(=O)OCC)cc2)cc1 | > 100 µM | –
COC(C)(C)C/C=C/C(C)=C/C=C/C(C)=C\C=C\C(C)=C\C=C\C=C(C)\C=C\C=C(C)\C=C\C=C(C)\C=C\CC(C)(C)OC | > 150 µg/mL | > 150 µg/mL
O=C(NCCCCCCNC(=O)c1cc(-c2ccccc2)nc2ccccc12)c1cc(-c2ccccc2)nc2ccccc12 | > 100 µM | –
CCCSS[C@H]1NC(=O)[C@H]1NC(=O)COc1ccccc1 | > 100 µM | –
CCN(CC)C(=O)C(C)n1cc(C)c(=O)[nH]c1=O (stereo not drawn) | > 100 µM | –

SMILES | TGI | GI50
Cc1cn(-c2cc(NC(=O)c3ccc(C)c(Nc4nccc(-c5cccnc5)n4)c3)cc(C(F)(F)F)c2)cn1 | > 10 µM and 28.9 µM | > 10 µM and 8 µM
C=C1C(=O)O[C@H]2[C@H]1CC/C(Cn1cc(-c3ccccc3C(F)(F)F)nn1)=C\CC[C@@]1(C)O[C@@H]21 | 23.2 µM | 10.8 µM
CC1=C(C(=O)Nc2ccccc2)C2(CCCCC2)C(C#N)=C(SCC(=O)Nc2ccc(Br)cc2)N1 | > 27.2 µM | –
C/C(=N\NC(=S)NCCCNC(=S)N/N=C(\C)c1ccccn1)c1ccccn1 | 22.1 µM | –
COC(=O)c1ccccc1C1CN=NC12Cc1cc(C)ccc1C2=O (stereo not drawn) | > 100 µM | –
C=C1CC2(OC1=O)C(=O)Nc1ccccc12 (stereo not drawn) | 38.5 µM | 13.5 µM
CCN(CC)c1ccc(N=Nc2ccc(-c3nc4ccc[n+](C)c4o3)cc2)cc1 | 30.5 µM | –
CCOc1ccc2nc(NC(=O)C(=O)C(c3cnc4ccccc4n3)[N+](=O)[O-])sc2c1 (stereo not drawn) | > 100 µM | –
CCCCCCCCCCNC(=O)CCC(NC(=O)c1ccc(N(C)Cc2cnc3nc(N)nc(N)c3n2)cc1)C(=O)NCCCCCCCCCC (stereo not drawn) | > 87.3 µM | –
NCCCNCCCCNC(=O)C(O)NC(=O)CCCCCCN=C(N)N (stereo not drawn) | > 5000 µM | 4950 µM
N#Cc1cccc(/C=N/N=C(\N)NO)c1 | > 100 µM | –
CC(C)(C)c1cc(O)ccc1O | > 100 µM | –
O=C(/C=C/c1ccc(C(F)(F)F)cc1)c1ccc(Nc2nc(NCCO)nc(Nc3ccc(Cl)cc3)n2)cc1 | 53.6 µM | 14.9 µM
CC(C)/C(Cl)=N\OC(=O)Nc1cccc(Cl)c1 | 33.4 µM | –
COc1cc2c(cc1OCCCC(=O)Nc1ccc3ccc4cccc5ccc1c3c45)N=C[C@@H]1CCCN1C2=O | 0.597 µM | 0.189 µM
O=C(NC12CC3CC(CC(C3)C1)C2)C(=O)c1c[nH]c2ccccc12 | 32.3 µM | –
O=C1Oc2cc(O)cc(/C=C/c3ccc(O)cc3)c2[C@@]12c1c(O)cc(O)cc1OC2c1cccc(O)c1 (stereo partly drawn) | 87.8 µM | –
Cc1ccnc(NC(NC(=O)c2ccccc2)(C(F)(F)F)C(F)(F)F)c1 | > 100 µM | –
CC(=O)OCc1cc2ccccc2nc1C(Br)(Br)Br | 27.3 µM | –
C(=C\c1ccco1)/c1cccc(/C=C/c2ccco2)n1 | > 50 µM | –
COc1ccc(-c2ccc(-c3ccc(C(=N)N)o3)o2)cc1 | 7.15 µM | 2.26 µM
Nn1c(Cc2ccc([N+](=O)[O-])cc2)n[nH]c1=O | > 100 µM | –
CC(C)OP(=O)(NC(=S)c1ccccc1)OC(C)C | > 100 µM | –

SMILES | TGI | GI50
Cc1cnc(C(=O)NNc2nc3sc4c(c3c(=O)n2C)C(C)CCC4)cn1 (stereo not drawn) | 10.1 µM | 0.29 µM
NC(N)=NS(=O)(=O)c1ccc(Nc2c3ccccc3nc3c(C(=O)Nc4ccc(S(N)(=O)=O)cc4)cccc23)cc1 | > 100 µM | –
CO/N=C(\C)c1cccc(Nc2c3ccccc3nc3occc23)c1 | 55.7 µM | –
N#Cc1ccc(-n2c3ccccc3c3ccc4c(c32)C(=O)C=CC4=O)cc1 | 28.3 µM | –
COC(=O)[C@@H](C)C[C@H](Cc1ccccc1)NC(=O)c1csc([C@@H](C[C@H](C(C)C)N(C)C(=O)[C@@H](NC(=O)[C@H]2CCCCN2C)C2CC2)OC(C)=O)n1 | > 16.5 µM | 0.00178 µM and 0.00165 µM
O=C1c2ccccc2-c2c1c1ccccc1c(=O)n2CCCn1ccnc1 | 6.13 µM | 2.3 µM
O=[N+]([O-])c1ccc(N/N=C/c2ccc(OCCCCCCCCCCCO)cc2)c([N+](=O)[O-])c1 | > 100 µM | –
CCNC(=O)O[C@H]1CN[C@H](C#Cc2cc3ncnc(Nc4ccc(OCc5cccc(F)c5)c(Cl)c4)c3s2)C1 | 12.9 µM | 0.836 µM
CC(=O)OCC1OC(n2c(-c3ccc(C)cc3)cc(-c3ccccc3)c(C#N)c2=S)C(OC(C)=O)C(OC(C)=O)C1OC(C)=O (stereo not drawn) | > 100 µM | –
Cc1cn(CC2=NCC(C)N2)c(=O)[nH]c1=O (stereo not drawn) | > 100 µM | –
COc1ccc(C2ON(c3cccc(C)n3)CC=C2C)cc1 (stereo not drawn) | > 100 µM | –
COCN1C(=O)[C@@H]2CCCN2C(=O)c2cc(N)ccc21 | > 100 µM | –
O=C1C(Cl)=C(NCc2ccco2)C(=O)c2ccccc21 | 42.5 µM | 17.9 µM
Oc1ccc(-c2nc3ccc(Cl)cc3s2)cc1 | 35 µM | –
Cc1cc2c([nH]c3ccccc32)c2c1OC(C)(C)C1C3CC(C)(C)Oc4c(C)cc5c6ccccc6n(c5c43)C21 (stereo not drawn) | > 100 µM | –
CCOC(=O)C(SCCO)C(C(=O)OCC)n1ccc(=O)[nH]c1=O (stereo not drawn) | > 100 µM | –
Cn1cc(-c2ccc(-c3ccc(C4=NC5(CC5)C(=O)N4C[C@@H]4CCN(C(=O)C5CC5)C4)cc3)cc2)cn1 | > 100 µM | 30 µM
COC(=O)C1(C)C=CC(=O)C2(C)C1C(O)C1OC3CC(c4ccoc4)C(C)=C3C1(C)C2CC(=O)O (stereo not drawn) | > 100 µM | –
O=C(NNC(=S)NC1CCCCC1)c1csc(NC(=S)NC2CCCCC2)n1 | 29.4 µM | –
Cc1cc(S(=O)(=O)Nc2nc3ccccc3c(=O)n2N)c(S)cc1Cl | > 100 µM | –
NC(N)=NS(=O)(=O)c1ccc(NCCc2c3ccccc3nc3ccccc23)cc1 | > 100 µM | –
CCN1CCC(O)(c2ccc(Cl)cc2)C(C(=O)c2ccc(Cl)cc2)C1 (stereo not drawn) | > 100 µM | –
C#CCOc1cccc(Nc2ncnc3cc(NC(=O)CCl)ccc23)c1 | 26 µM | 13.3 µM
